Source: PubChem BioAssay AID901 (National Center for Advancing Translational Sciences (NCATS), 2007)
Among all 120,000 compounds or so, fewer than 10 were called active. The inconclusive results got no clear call from the source; some entries with a clear call stand among them for comparison. Calls come from the whole dose curve; as a rule, active = well fitted curve in the direction sought with a large enough effect in the signal ratio (not every such curve was filed as active); inconclusive = small, poorly fitted or top-dose-only effect, or a change in a side signal; inactive = no such curve, though single readings can be large or run the other way; the % refers to the signal ratio. No potency is given beside an inconclusive call; the fits are too rough.

What follows are molecules tested against Inositol monophosphatase 1 (Rattus norvegicus) (UniProt P97697) (assay: qHTS Assay for Identifying the Cell-Membrane Permeable IMPase Inhibitors). Details: CHO-M1 cells, HTRF TR-FRET ratio; Potency: IP1 accumulation unless noted; inhibition (IP1 accumulation): at 46.1 µM (top of the series) unless noted.
Chain of UniProt P97697 (P97697 whole entry, looked up): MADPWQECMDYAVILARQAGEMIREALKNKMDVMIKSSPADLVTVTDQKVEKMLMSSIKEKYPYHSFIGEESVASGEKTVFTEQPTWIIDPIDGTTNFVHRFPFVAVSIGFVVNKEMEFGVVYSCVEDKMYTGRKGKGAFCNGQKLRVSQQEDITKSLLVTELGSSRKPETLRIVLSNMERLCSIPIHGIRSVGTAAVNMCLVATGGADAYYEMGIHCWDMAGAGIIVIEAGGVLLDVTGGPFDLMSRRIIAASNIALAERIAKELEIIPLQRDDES
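Note: cells stimulated with carbachol in lithium chloride buffer.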
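Throughout, for inhibition (IP1 accumulation): plate controls were DMSO basal wells for no effect and reference inhibitor wells for full effect; higher means more IMPase inhibition seen as more IP1 and lower FRET ratio.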

| Compound | Potency | inhibition (IP1 accumulation) |
| --- | --- | --- |
| CC(C)OC(=O)c1c2nc3ccccc3nc2n2c1[nH]c(=O)c1ccccc12 | inconclusive [falling, single point] | – |
| COC(=O)c1ccc(-c2nc3ccc(C)cc3o2)cc1 | inconclusive [falling, single point] | – |
| COCCCn1c(=N)c(C(=O)NCC2CCCO2)cc2c(=O)n3ccccc3nc21 (stereo not drawn) | inconclusive [inhibitor, single point] | – |
| CC(=O)c1ccc(N2CCN(C(=S)Nc3cccc(F)c3)CC2)cc1 | inactive | – |
| COc1ccc(-c2cn3c(C)c(C(=O)Nc4ccncc4)sc3n2)cc1 | inconclusive [falling, single point] | – |
| Cc1cc(C2C(C#N)=C(N)SC(N)=C2C#N)c(C)s1 | inconclusive [inhibitor, partial curve, poor fit] | – |
| Nc1ccc2c(C(F)(F)F)cc(=O)oc2c1 | inconclusive [inhibitor, single point] | – |
| O=C(Nc1ccc(F)cc1)NC1CCN(Cc2nnnn2Cc2ccco2)CC1 | inactive | – |
| CSc1nc(C)cc(-n2ccc(=O)[nH]c2=O)n1 | inactive | – |
| CCc1c(C)sc(NC(=O)c2cc3nc(-c4ccc(OC)cc4)cc(C(F)(F)F)n3n2)c1C(=O)OC | – | inconclusive: -8.24% |
| CN(Cc1ccccc1)c1ncnc2ccc(Br)cc12 | inactive | – |
| CC1=C(C(=O)Nc2ccccc2)C(c2ccc(Br)cc2)n2nc(CCCO)nc2N1 (stereo not drawn) | inactive | – |
| CCN(CC)C(=O)CSc1nc2c(sc(=S)n2Cc2ccco2)c(=O)n1-c1ccccc1 | – | inconclusive: 13.1% [phenotype inactive] |
| O=C(NCC1CCCO1)C(c1cccs1)N(Cc1cccs1)C(=O)Cn1nnc(-c2cccs2)n1 (stereo not drawn) | – | inconclusive: 5.55% [phenotype inactive] |
| Cc1ccc(-n2c(SCC(=O)Nc3cc(C)on3)nc3ccccc3c2=O)cc1 | inactive | – |
| CC(C)(C)C1CCc2c(sc(NC(=O)CSc3ncn[nH]3)c2C#N)C1 (stereo not drawn) | – | inconclusive: 7.66% [phenotype inactive] |
| COc1ccc(CNc2oc(-c3cccc4ccccc34)nc2C#N)cc1 | inconclusive [falling, single point] | – |
| S=C(Nc1ccccc1)Nc1ccc(Cl)cc1Cl | inactive | – |
| CC(=O)N1CCN=C1SCc1ccc(Cl)cc1 | – | inconclusive: -2.79% [phenotype inactive] |
| CCCCOc1ccccc1NC(=O)c1ccco1 | – | inactive: -12.1% [at 1.84 µM] |
| CCOc1ccc(C2C(C(=O)c3ccco3)=C(O)C(=O)N2Cc2cccnc2)cc1OC (stereo not drawn) | inactive | – |
| Cc1nnc(SCC(=O)Nc2ccc(S(=O)(=O)N3CCCC3)cc2)n1N | inactive | – |
| O=C(CCC1N=C2c3ccccc3N=C(SCc3ccc(F)cc3)N2C1=O)N1CCN(c2ccccc2)CC1 (stereo not drawn) | – | inconclusive: -1.75% [phenotype inactive] |
| CCOC(=O)C(NC(C)=O)(Nc1ccc(S(=O)(=O)Nc2cc(C)nc(C)n2)cc1)C(F)(F)F (stereo not drawn) | – | inconclusive: 5.13% [phenotype inactive] |

| Compound | Potency | inhibition (IP1 accumulation) |
| --- | --- | --- |
| COc1ccc(-c2cc(C(F)(F)F)nc(SCC(=O)N3CCCCC3)n2)cc1 | inconclusive [inhibitor, single point] | – |
| Cc1sc2ncnc(SCC(=O)NC(=O)NCc3ccco3)c2c1C | – | inconclusive: -7.36% [phenotype inactive] |
| CCCCOC(=O)CSc1nc(N)c(C#N)c(-c2ccc(OCC)cc2)c1C#N | inconclusive [inhibitor, single point] | – |
| COc1ccccc1-c1nnc(-c2ccc(N3CCOCC3)cc2)o1 | inconclusive [inhibitor, partial curve] | – |
| COc1cc(-c2nc3ccccc3s2)ccc1O | inconclusive [inhibitor, partial curve] | – |
| Cc1nn(Cc2ccc(Cl)cc2)c(C)c1NC(=O)CSc1nc2c(c(C(F)(F)F)n1)CCc1ccccc1-2 | inconclusive [falling, single point] | – |
| COc1ccc2c(Cl)c(C(=O)N/N=C/c3ccc4c(c3)OCO4)sc2c1 | inactive | – |
| COc1ccc(C(=O)NC(=S)Nc2cccc(NC(=O)c3ccco3)c2)cc1[N+](=O)[O-] | – | inconclusive: -7.67% [phenotype inactive] |
| Cc1cc2cc(CNC(=O)NC3CCCCC3)ccc2[nH]1 | inactive | – |
| CC(C)(C)c1ccc(/C([O-])=C(/C(=S)NCc2ccco2)[n+]2ccccc2)cc1 | inconclusive [falling, single point] | – |
| O=C(O)c1cc(-c2ccco2)nc2ccc(Br)cc12 | inconclusive [inhibitor, single point] | – |
| CCCSc1nc(N)c(C#N)c(-c2ccc(C)cc2)c1C#N | inconclusive [inhibitor, single point] | – |
| O=C(Nc1ccc2nc(-c3ccco3)c(-c3ccco3)nc2c1)N1CCCCCC1 | inactive | – |
| CC(=O)Nc1cccc(NC(=O)Nc2ccc(C(C)=O)cc2)c1 | inactive | – |
| Cc1c(Cl)c(-c2n[nH]c(=S)n2-c2ccc(F)cc2)nn1C | inconclusive [inhibitor, partial curve] | – |
| Cc1cc2ccccc2n1CCNC(=O)C(C)C | inactive | – |
| C=CCn1c(SCC(=O)Nc2ncc(Cc3ccc(Br)cc3)s2)nnc1-c1ccncc1 | inactive | – |
| COc1ccc(CNC(=O)Cn2cc3c(n2)CCCCC3)cc1 | inactive | – |
| c1ccc(-c2nn3c(C4CCCCC4)nnc3s2)cc1 | inactive | – |
| O=c1cc(CN2CCOCC2)c2c(ccc3ccccc32)o1 | – | inconclusive: 15.9% [phenotype inactive] |
| CCC(C)(C)NC(=O)CN(C(=O)CCC(=O)Nc1cc(C)ccn1)c1ccc2c(c1)OCO2 | inactive | – |
| O=C(NC(=S)Nc1ccc(N2CCOCC2)c(Cl)c1)C(c1ccccc1)c1ccccc1 | inactive | – |
| Cc1cc(NC(=O)COc2ccc3oc4ccccc4c3c2)no1 | inconclusive [inhibitor, single point] | – |
| Cc1cc(S(=O)(=O)N(Cc2ccc3c(c2)OCO3)CC2CCCO2)ccc1-n1cnnn1 (stereo not drawn) | inactive | – |
